From the supplement of paper PMC3334620
Over roughly 33,000 sequences, “E-score (-0.5 to 0.5)” has its median near -0.054; the highest 2% begin near 0.35. The list shows a part of the results.

Biological target: T1, Stb5 (UniProt P38699)
T1 sequence: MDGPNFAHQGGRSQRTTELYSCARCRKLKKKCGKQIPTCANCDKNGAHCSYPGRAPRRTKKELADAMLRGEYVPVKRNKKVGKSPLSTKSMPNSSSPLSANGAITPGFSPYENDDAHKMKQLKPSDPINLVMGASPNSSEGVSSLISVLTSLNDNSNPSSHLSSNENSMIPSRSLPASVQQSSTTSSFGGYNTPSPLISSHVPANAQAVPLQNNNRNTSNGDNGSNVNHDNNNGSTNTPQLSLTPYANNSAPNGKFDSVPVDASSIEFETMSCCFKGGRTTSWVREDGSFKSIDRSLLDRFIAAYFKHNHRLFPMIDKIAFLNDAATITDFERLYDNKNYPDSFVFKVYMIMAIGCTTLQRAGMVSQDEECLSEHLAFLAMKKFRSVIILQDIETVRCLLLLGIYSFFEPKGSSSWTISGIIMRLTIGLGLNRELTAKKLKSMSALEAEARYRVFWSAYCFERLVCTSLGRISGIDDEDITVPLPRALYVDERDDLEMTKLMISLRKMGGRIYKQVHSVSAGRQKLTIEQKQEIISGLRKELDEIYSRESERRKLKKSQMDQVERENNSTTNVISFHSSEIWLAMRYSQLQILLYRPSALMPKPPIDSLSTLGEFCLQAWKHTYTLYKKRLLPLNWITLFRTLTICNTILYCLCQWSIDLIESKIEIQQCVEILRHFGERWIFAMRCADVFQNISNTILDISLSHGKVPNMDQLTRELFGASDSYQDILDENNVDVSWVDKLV
Test: PBM E-score (8-mer binding enrichment) (E-score (-0.5 to 0.5)); higher = stronger / more preferred TF binding; most listed sequences are background and not binding sites
Details: protein concentration: 200 nM; construct: GST-full length
In short: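 PURExpress in vitro transcription/translation supplied GST-tagged yeast transcription factors, either full-length or DNA-binding domain. Applied at about 100-200 nM to universal all-10-mer Agilent arrays double-stranded by primer extension, the bound protein was detected with fluorescent anti-GST. E-scores, modified Wilcoxon-Mann-Whitney statistics, were given by the Universal PBM Analysis Suite to ungapped eight-base words pooled with their reverse complements after masliner normalisation.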

Sequence	PBM E-score
CGGAAATC	0.0555
ACGTTCAC	-0.0597
CTGTACAC	-0.0392
ACTATAGC	0.162
ACCACCGC	0.391
CAATTACA	0.0294
CATAGAGA	-0.281
CCGGACAG	0.219
CCCGCCTC	0.207
CCCGGAAG	0.15
AGACGCTA	-0.137
AATGGCAA	-0.0129
ATATTAGC	0.123
ATAGCGGC	0.309
AGGTCACG	-0.111
GGTAGGAC	0.0845
CCTAGCAC	-0.158
AATGACAC	-0.0205
ATAGGGAA	0.0562
GGCACTCA	-0.176
ATGGCTCG	-0.214
CAGCATGC	-0.169
TGCGCGCA	-0.13
CTCACTCA	-0.191
ATCCTTCC	-0.143

Sequence	PBM E-score
CGACAAGA	-0.00104
CACCGCTG	0.405
AGAACTAC	-0.0377
GAAGCCAA	-0.128
ATTAATGC	-0.0156
CGCAAAGA	0.016
GCTGCTCA	-0.16
ATGGATCG	0.0726
CACAAGAG	-0.132
GAATGCAC	-0.0135
ACCCGCTC	0.246
AGGATCAT	-0.23
AATCGCCC	-0.00317
GCGGGGTA	0.345
AGCCCGGG	0.189
GTCCTGAA	-0.18
AATCCAGA	-0.156
ATGCGGCG	0.282
CAGAAGAA	-0.143
AAACTGTT	-0.13
AACTCGTG	-0.141
CTGGACAC	-0.213
AACATTCT	-0.214
AGCAACTG	-0.144
ACTAAAAT	-0.0486

Sequence	PBM E-score
TCGGACGA	0.0643
CTATTCCA	0.0398
AAGCACGT	-0.252
CGGTCATA	0.448
ATTTGGAC	-0.0228
GCTACTAC	0.165
TAGCAAGA	-0.0573
GCAATCAA	-0.1
ATTACCCC	0.362
CCGCGACA	0.201
CTAAATAA	0.163
GGTGAGGA	0.0241
TACAATGA	-0.0637
TGAAGTAA	-0.142
AAAAGATC	-0.212
AGCGCCAC	0.162
ATCAGGAG	-0.105
GAGCTCCC	-0.168
ACTTAACC	-0.0144
CGGCGACC	0.188
AGCTTCAC	-0.235
CTTATTCC	0.197
TACCTGGA	-0.174
ATACAGAC	-0.062
ATAGAGAC	-0.165

Sequence	PBM E-score
GAGATAAC	0.181
GTAGATCA	-0.062
CGAGTAGC	0.0129
GTAAGTAA	-0.0169
AGCCTAAA	-0.149
ATCAGGTA	0.00741
CCCTGTCG	-0.0966
ATAGTGAG	-0.158
AAGTGGAC	-0.13
CACATGCA	-0.208
AAGGGGAC	-0.0413
ACATGCGC	-0.0638
AATAAATT	0.0482
TGCTATAA	0.0448
GTAATCTA	-0.0418
CACCATGG	-0.183
ACGCGCTC	-0.136
ATCTACAA	-0.0956
ATGAAAAA	0.00524
AAGGACGC	-0.183
AGTTTCAG	-0.0163
ACCGGTCT	0.31
ACGGCTAC	-0.0612
CCGGACCC	0.29
CAGTTAAG	0.0137

Sequence	PBM E-score
AAGAGTAG	0.0093
ACATTCGC	0.0612
AAGCGCGT	0.084
TGAGGAAA	-0.0514
CGTGAAGC	-0.0144
ACCAACGT	-0.12
AAGTGGGT	-0.0391
ACAAACGG	0.292
AGAGCTCC	-0.0376
GTAGGCTA	-0.198
ATACAACA	-0.22
ATCGGCAG	0.219
ACTCACTA	-0.243
GGCCCCTA	0.0521
CTTTAGCC	0.00711
CTGTGAAC	-0.043
CGTTCGTC	0.0524
CATCGTGA	-0.0873
ATAGTGGA	-0.0424
GAGATGCC	0.033
ATCAATAC	-0.143
GACAACGA	-0.0758
TAGGTCGA	-0.0972
CCCTTATC	-0.0693
AGAGGACT	-0.236

Sequence	PBM E-score
AGGTTTAC	-0.199
CTCCCCTC	-0.17
CACGACAA	-0.115
AAGTACAA	-0.0817
ATCCGATA	0.22
GGGTATCA	-0.079
CTGAGAAA	-0.115
CTCTTTTC	-0.0815
CTCCCGGA	0.188
AAGATGCG	-0.0714
AACACGAA	-0.0676
GACGTGTA	-0.123
GAAGGCTA	-0.125
CTATGAAC	-0.0678
AACACCAC	0.113
GCTGAAAA	-0.15
CGGATCCA	0.267
AGTAGTCA	-0.146
ATCAGCAA	-0.0974
AAAGACCC	0.0704
ATGCTTGA	-0.155
TCGATCCA	-0.198
ATGCGCGA	0.0413
ACTGGAGA	-0.164
ATCACAAG	-0.139

Sequence	PBM E-score
AACTCTTA	-0.0636
GGCCCGAC	0.358
GACATCGA	-0.081
ATGTATTA	-0.0988
ATCGAGGA	-0.264
CGCACCGC	0.352
ACACTCAA	-0.254
AAGCTACC	-0.101
TACTCGCA	-0.136
GTTACGGA	0.125
AATGCCAA	-0.237
ACCTGCCC	0.0486
AACGGTCC	0.254
AAACAAGC	-0.0111
AGCACCTG	-0.14
GCTATACC	0.179
CGCTCACC	-0.0684
ACATTCAA	-0.022
AGGCATAC	-0.223
AATAACCT	-0.215
GAGTGTCC	0.0712
GAGGTGAC	-0.092
